Laboratory results published in patent US20230090771A1 (REGENTS OF THE UNIVERSITY OF MINNESOTA, published 2023).

Assays:
[1] = target: T1, his6-SUMO-BstA, split borosin precursor BstA (Burkholderia stabilis)
T1 chain: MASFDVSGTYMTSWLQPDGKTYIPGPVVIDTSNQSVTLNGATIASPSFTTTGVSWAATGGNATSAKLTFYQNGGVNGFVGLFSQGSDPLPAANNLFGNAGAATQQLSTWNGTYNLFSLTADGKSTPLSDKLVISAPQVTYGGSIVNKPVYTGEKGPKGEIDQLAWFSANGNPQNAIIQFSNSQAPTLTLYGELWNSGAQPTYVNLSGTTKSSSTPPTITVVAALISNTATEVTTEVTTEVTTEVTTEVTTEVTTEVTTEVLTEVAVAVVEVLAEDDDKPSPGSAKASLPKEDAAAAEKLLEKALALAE

[2] = target: T2, his6-SonA, split borosin precursor SonA (Shewanella oneidensis) with N-terminal hexa-histidine tag, co-expressed with SonM
T2 chain: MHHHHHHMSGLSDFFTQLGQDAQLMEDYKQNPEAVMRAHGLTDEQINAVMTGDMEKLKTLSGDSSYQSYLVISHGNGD

[3] = target: T3, his6-SUMO-StrA, split borosin precursor StrA (Streptomyces sp. NRRL S-118)
T3 chain: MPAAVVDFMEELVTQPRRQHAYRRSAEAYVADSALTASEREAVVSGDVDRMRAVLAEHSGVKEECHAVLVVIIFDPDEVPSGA

[4] = target: T4, his6-SUMO-RceA, split borosin precursor RceA (Rhodospirillum centenum SW)
T4 chain: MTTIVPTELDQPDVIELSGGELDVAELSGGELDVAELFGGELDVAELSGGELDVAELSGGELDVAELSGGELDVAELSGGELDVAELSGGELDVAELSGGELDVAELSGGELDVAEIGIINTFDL

B1: his6-SUMO-BstM, split borosin alpha-N-methyltransferase BstM (Burkholderia stabilis) (protein)
chain: MSEAKGRLVVIGSGIKAVSHFTLEAQAHIQQADIVLYAAADPVTDMWIESQNPNAFDLYQYYADDKARLITYVQMIERIMAEVRAGKYVCALFYGHPGVFVTPSHNAIAIARQEGFDAVMLPAVSAEDCLYADLGVDPSVPGMQIYEATDFLLRRRKVDTTANFVLWQVGCIGDLGFKFGGYKNDKFDVLLDYLEEIYGADHPAINYVANMFSGPPQIDRHVIGDYRDPEVKAKVSGISTFFIPAKDGIQSDAGMLAKLGLAKISEARRTPLICDREDYRVLADIARRNIHNHKVPPGYKYSFASDALYQTLLTLALDQRAQGEFQANPRAYLEARPGLTADERRSLLLQHTGVTRMMFKRDPDKEAVRFVGAALLDPALAREYRDRQAAAAQAVANHDIPVGEYEGVVASWLRGQGYAATPAAVTRAMEEVYTSKDHLSVA
[1]
  alpha-N-methylation of the precursor (LC-MS/MS): Alpha-N-methylations are observed as mass shifts in multiple fragments of the BstA core

B2: split borosin alpha-N-methyltransferase SonM (Shewanella oneidensis), untagged, co-expressed with his6-SonA (enzyme)
chain: MGSLVCVGTGLQLAGQISVLSRSYIEHADIVFSLLPDGFSQRWLTKLNPNVINLQQFYAQNGEVKNRRDTYEQMVNAILDAVRAGKKTVCALYGHPGVFACVSHMAITRAKAEGFSAKMEPGISAEACLWADLGIDPGNSGHQSFEASQFMFFNHVPDPTTHLLLWQIAIAGEHTLTQFHTSSDRLQILVEQLNQWYPLDHEVVIYEAANLPIQAPRIERLPLANLPQAHLMPISTLLIPPAKKLEYNYAILAKLGIGPEDLG
notes: also called WP_011071665
[2]
  alpha-N-methylation of the precursor (LC-MS/MS): Alpha-N-methylations are observed as mass shifts in multiple fragments of the SonA core

B3: his6-SUMO-StrM, split borosin alpha-N-methyltransferase StrM (Streptomyces sp. NRRL S-118) (protein)
chain: MQETTGNAQLVVVGTGFRAIGDLTVEARACLEQADKVLCLIGDPLVTRHIEKLNASVETLDVHYAVGKPRSASYEDMVEHIMSELHRDQFVCVALYGHPGVFAYTGHEAIRRAREEGIAARMLPACSAEDWLFADLGLDPGERGCQSFEATDFLIRHRVFDPTGLLILWQVGVIGMIDRDPGYDARPGVTTLTDALVASYGSGHPVTVYEASPYVTAEPRTTTVPLAELPDTPLSAASTLVVPPLPPRPVDRELLARLAARR
[3]
  alpha-N-methylation of the precursor (LC-MS/MS): Alpha-N-methylations are observed as mass shifts in multiple fragments of the StrA core

B4: split borosin alpha-N-methyltransferase RceM (Rhodospirillum centenum SW) (protein)
chain: MRAAPMAETETPPAAPSPSAPERPRGSLTVVGTGLRALSHMTLEAISHIRDADRVFFSVPDGVTARQIRDINPEAVDLTQYYGEDKRRKQTYVQMSEVILREVRAGSAVTAVFYGHPGFFVFPARRILSIARKEGYRAVMLPGISSLDCLMADLRVDPSVNGCQILEATDLLLRNRPIITSGHVIILQVGSVGDSAFSFTAGFRHAKRAVLFERLIEAYGEEHRSVLYLAATYPGLDGQAVVRPLGAYRDPKVLASVPPAGTLYIPAKDMLPTDMAMAEKLGMSALVGPDAPVPAGPDSYGPFEAQAIAALDHYRPSPTWRPRTASKALQRVMTLLAGTPSVAAVYRKDPARLVDLHPDLTPAERKALLSRRAGPLNAVTAPPPEGAPPTVDEAGNGNGGDAPSEGETA
[4]
  alpha-N-methylation of the precursor (LC-MS/MS): Alpha-N-methylations are observed as mass shifts in multiple fragments of the RceA core
